Data from the supplement of paper PMC3334620.
In all, about 33,000 sequences were measured (“E-score (-0.5 to 0.5)”: median about -0.035, highest 2% from about 0.34 on). Some of the results follow.

molecular target: T1, Mot3 (UniProt P54785); assay: PBM E-score (8-mer binding enrichment) (E-score (-0.5 to 0.5)); higher = stronger / more preferred TF binding; most listed sequences are background and not binding sites; conditions: protein concentration: 200 nM; construct: GST-full length
T1 sequence: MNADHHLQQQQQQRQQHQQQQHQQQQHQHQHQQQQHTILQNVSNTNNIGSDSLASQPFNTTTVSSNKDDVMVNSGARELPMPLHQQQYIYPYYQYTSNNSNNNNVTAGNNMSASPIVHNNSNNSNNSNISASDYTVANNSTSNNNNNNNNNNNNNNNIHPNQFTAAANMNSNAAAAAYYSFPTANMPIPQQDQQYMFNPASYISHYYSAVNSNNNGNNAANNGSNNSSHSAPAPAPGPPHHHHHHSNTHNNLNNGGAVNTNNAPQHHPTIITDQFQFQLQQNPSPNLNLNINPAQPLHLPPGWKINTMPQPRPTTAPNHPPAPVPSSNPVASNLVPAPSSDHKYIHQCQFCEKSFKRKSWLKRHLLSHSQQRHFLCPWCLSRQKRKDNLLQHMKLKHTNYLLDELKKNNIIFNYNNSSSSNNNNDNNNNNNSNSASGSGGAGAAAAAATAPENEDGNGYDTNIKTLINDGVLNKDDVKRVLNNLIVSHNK
Experimental: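 Universal 'all 10-mer' protein binding microarrays (Agilent AMADID 015681) probed with GST-tagged S. cerevisiae TFs (full-length or DBD) made by in vitro transcription/translation (PURExpress), about 100-200 nM. Bound TF was detected with fluorescent anti-GST. Each ungapped 8-mer (which stands for itself and its reverse complement) is scored by the PBM enrichment score (E-score), a modified Wilcoxon-Mann-Whitney statistic from -0.5 to +0.5, computed with the Universal PBM Analysis Suite. Scale: above 0.35 generally sequence-specific binding.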

Sequence | PBM E-score
CGGCCCGA | -0.275
AACGCAAG | 0.106
CAAGTCCA | -0.126
CGAATAAG | -0.176
CAACACGA | 0.363
ATGCTAGC | -0.0698
AGTACTGA | -0.258
ACCGGGCG | -0.371
CAATTGGA | -0.241
ATGGTTTC | 0.0624
CACATTCA | -0.0265
CCAAAAAC | 0.00075
AGATCTCG | -0.259
CAGACCGC | -0.231
ACTATCAG | -0.0545
AATCAGTC | 0.101
ACCATTGA | -0.0323
AAGCAAGA | 0.0175
TAAGTCAA | -0.0137
GACAATCC | -0.215
CTTATAGA | 0.0013
GATACTGC | -0.135

Sequence | PBM E-score
CACCGGGG | -0.179
CCCTGTAG | -0.00088
AGACGTCC | 0.0226
ATCTGAAA | -0.0689
CACTCGCA | -0.0906
AAAACTCT | -0.0469
ATAGGCCA | -0.0678
CCCACAAC | -0.208
CGGTGGGA | -0.217
CTAATGGC | -0.154
AGCGTGCA | 0.092
ATTCACTG | 0.0165
ACATAGTG | 0.243
GACTAACC | 0.00019
GCTGCTTA | -0.0691
CCGTTTTA | 0.101
CCAATTGG | -0.217
AGGTCCTG | -0.216
AAACCACA | 0.189
AGAGCTTC | -0.0602
ACAAACCG | 0.00705
GACAAGTA | 0.0316

Sequence | PBM E-score
CGCTCGAA | -0.042
TAGATAAA | -0.0492
CACTCAAC | 0.0132
GGTGGATA | -0.193
ACGAAACG | 0.0289
CTTCCTCA | -0.0634
AATTGATA | 0.0378
ATGACACA | 0.313
AGCGGGAA | -0.114
CCCCTCTC | -0.175
ATGATCGC | -0.0309
CCAGAGCA | -0.12
GATTAGGC | 0.233
ACGATTAC | 0.286
CATGGCCA | -0.229
CGGATACA | 0.098
AATTGACG | 0.0363
CCTTAACC | 0.0429
CCGCATCA | -0.176
GTTACGCA | 0.207
CAGTGGAA | -0.222
CAGTACCA | -0.247

Sequence | PBM E-score
AGATCCTG | -0.0763
CTAAGGTC | -0.126
GGACGAGA | -0.131
CATGGGCG | -0.212
ATTCTATA | -0.0583
TCCTATCA | 0.0625
ATACGCTG | 0.0535
ACAAAATG | 0.23
GGTAGCGA | -0.263
CTCGTTCC | 0.111
CTACAAGC | 0.238
CAGTTAGA | -0.195
ATTCGTAA | 0.183
GATACCGC | -0.091
ATCATGTA | 0.392
CGTCACAA | 0.0391
CGAGACCA | -0.163
ATGTCATG | 0.277
TATACACA | 0.364
GCAAGCAC | 0.164
